Measured values from PubChem BioAssay AID720707 (National Center for Advancing Translational Sciences (NCATS), 2013).
Screen size: about 360,000 compounds; about 270 (0.075%) were called active. Inconclusive means that the source gave no clear call. Such entries were picked first, then a sample of the others. Calls follow the shape of the dose curve; as a rule, active = well fitted activation curve with a large enough effect; inconclusive = small, poorly fitted or top-dose-only effect; inactive = no such curve, though single readings can be large or run the other way. Potencies of inconclusive entries are left out as doubtful fits.

target: Rap guanine nucleotide exchange factor 3 (Homo sapiens) (UniProt O95398); assay: qHTS for Agonist of cAMP-regulated guanine nucleotide exchange factor 3 (EPAC1): primary screen; details: biochemical assay; activation: at 154 µM (top of the series), 100% = response to 6.5 mM cAMP; also: nearly all actives have a fitted effect of over 60% in size
Source text: In multi-cellular eukaryotic organisms, the effects of cAMP are transduced by two ubiquitously-expressed intracellular cAMP receptors, the classic protein kinase A/cAMP-dependent protein kinase (PKA/cAPK) and the more recently discovered exchange protein directly activated by cAMP/cAMP-regulated guanine nucleotide exchange factor (EPAC/cAMP-GEF). Both PKA and EPAC are ubiquitously expressed in all tissues, and an increase in intracellular cAMP levels will lead to the activation of both PKA and EPAC. Therefore, careful dissections of the individual role and relative contribution of EPAC and PKA within the overall cAMP signaling in various model systems are critical for further elucidating the mechanism of cAMP signaling. To date no EPAC-specific antagonists and agonist, as well as isoform-specific agonists have been reported, and developing EPAC-specific pharmacological probes to determine the physiological functions that EPAC play in the overall cAMP-mediated signaling remains a major challenge within the research field. Furthermore, identified regulators of EPAC may lead to new mechanism-based therapeutic strategies specifically targeting the EPAC / cAMP-signaling components as EPAC has been implicated to play important roles in major human pathological conditions such as diabetes, heart disease, and cancer.
This qHTS will be used to screen the Molecular Libraries Small Molecule Repository (MLSMR) as a concentration-titration series using the NCGC unique quantitative screening (qHTS) platform to find activators for EPAC1. In addition, this assay will also be used as a counterscreen for the EPAC2 qHTS. This fluorescent based assay is developed and validated for EPAC1 that measures exchange using EPAC effector Rap1 complex with BODIPY-GDP, a GDP analog with a tethered fluorophores. Activators are identified by monitoring the change in fluorescence signal as the exchanged free BODIPY-GDP has a reduced fluorescence compared to Rap1-bound BODIPY-GDP. Increase in signal (activation) is the desired outcome for the EPAC1 agonist while no activity in this assay is desired for the EPAC2 agonist counterscreen.
[1] de Rooij, J., Zwartkruis, F. J., Verheijen, M. H., Cool, R. H., Nijman, S. M., Wittinghofer, A., and Bos, J.L. (1998) Nature 396, 474-477
NIH Chemical Genomics Center [NCGC]
NIH Molecular Libraries Probe Centers Network [MLPCN]
Assay Submitter (PI): Xiaodong Cheng, The University of Texas Medical Branch
Briefly, three uL of reagents (100 nM EPAC1, 250 nM RAP1B-BODIPY-GDP, 50 uM GDP) were dispensed into a 1536-well Greiner black solid-bottom medium binding assay plate. Controls and test compounds (23 nL) were transferred to the plate via a Kalypsys pin tool equipped with a 1536-pin array. The plates were centrifuged at 1,000 rpm for 15 seconds followed by 5 minute incubation at room temperature. The assay plates were read at 5 minute intervals for 30 minutes in the ViewLux plate reader using 480nm excitation and 540nm emission filters. The results were normalized to the agonist positive control of 6.5 mM cAMP.
Potency is read from the fitted curve at half-maximal effect; tags tell the direction and shape of the fitted curve.

Chain of UniProt O95398 (O95398 whole entry, looked up): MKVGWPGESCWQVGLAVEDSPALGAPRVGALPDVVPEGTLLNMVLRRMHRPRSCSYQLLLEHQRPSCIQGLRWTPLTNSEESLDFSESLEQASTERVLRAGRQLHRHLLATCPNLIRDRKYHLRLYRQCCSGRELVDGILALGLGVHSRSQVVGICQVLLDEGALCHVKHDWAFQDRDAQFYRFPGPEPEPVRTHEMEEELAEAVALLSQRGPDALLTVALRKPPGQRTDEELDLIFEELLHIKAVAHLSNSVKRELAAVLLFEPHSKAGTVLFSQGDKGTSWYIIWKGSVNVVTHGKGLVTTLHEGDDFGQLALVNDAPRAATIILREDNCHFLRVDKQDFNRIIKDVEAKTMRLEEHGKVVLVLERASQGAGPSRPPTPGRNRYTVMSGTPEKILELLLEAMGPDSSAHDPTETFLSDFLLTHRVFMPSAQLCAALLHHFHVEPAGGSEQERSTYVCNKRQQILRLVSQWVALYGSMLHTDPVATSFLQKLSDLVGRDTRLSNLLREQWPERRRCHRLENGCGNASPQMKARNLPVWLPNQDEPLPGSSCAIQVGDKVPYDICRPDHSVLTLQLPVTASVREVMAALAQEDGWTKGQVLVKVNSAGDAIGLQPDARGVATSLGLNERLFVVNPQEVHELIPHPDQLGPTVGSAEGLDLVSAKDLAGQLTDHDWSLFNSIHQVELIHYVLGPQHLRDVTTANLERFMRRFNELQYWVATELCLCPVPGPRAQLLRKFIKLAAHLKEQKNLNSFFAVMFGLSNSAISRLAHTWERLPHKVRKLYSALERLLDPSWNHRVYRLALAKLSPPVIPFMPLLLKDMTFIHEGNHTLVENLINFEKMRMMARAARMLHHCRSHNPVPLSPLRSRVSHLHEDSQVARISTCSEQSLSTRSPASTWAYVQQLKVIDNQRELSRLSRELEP

Compound | Potency | activation
CCC(Oc1ccccc1)C(=O)Nc1cc(Cl)ccc1-n1cncn1 (stereo unspecified) | inconclusive [activator, full curve, poor fit] | –
Cc1c(C(=O)N2CCN(C/C=C/c3ccccc3)CC2)oc2c(F)cccc12 | inconclusive [activator, partial curve] | –
CCOc1cc(/C=C2/C(=N)N3N=C(CC)SC3=NC2=O)ccc1OC(=O)c1ccco1 | inconclusive [activator, partial curve] | –
COc1ccc2noc3c2c1C(=O)c1ccccc1-3 | active: 100 µM | –
Cc1cc(C)c(NC(=O)CNC(=O)COC(=O)C2CCN(c3ccc(C(F)(F)F)cn3)CC2)c(C)c1 | inconclusive [activator, full curve, poor fit] | –
Cc1cccc(NC(=O)CSCC(=O)Nc2cccc(S(=O)(=O)N3CCCCCC3)c2)c1 | inconclusive [activator, full curve, poor fit] | –
Cc1cccnc1NC(=O)C1CCN(S(=O)(=O)c2ccc3ccccc3c2)CC1 | inconclusive [activator, partial curve] | –
O=C(NCC(c1ccco1)N1CCN(c2ccccc2F)CC1)c1cccs1 (stereo unspecified) | inconclusive [activator, partial curve, poor fit] | –
CCCCCCc1cc2cc(/C(N)=N/NC(=O)c3ccncc3)c(=O)oc2cc1O | inconclusive [activator, full curve, poor fit] | –
O=[N+]([O-])c1ccc(S(=O)(=O)N2CCC3(CC2)OCCN3S(=O)(=O)c2cccs2)cc1 | inconclusive [activator, full curve, poor fit] | –
CC1=CC(=C(C#N)c2nc3ccccc3s2)C=C(C)N1CC1CCCO1 (stereo unspecified) | inconclusive [activator, full curve] | –
CC(C)(C)NS(=O)(=O)c1ccc(NC(=O)C2CC(=O)N(CCc3ccc(F)cc3)C2)cc1 (stereo unspecified) | – | inactive: -4.03%
Clc1ccccc1-c1nnc(-c2ccccc2Cl)o1 | inconclusive [activator, partial curve] | –
O=C(CNc1cccc(S(=O)(=O)N2CCCCC2)c1)Nc1cccc(F)c1 | inconclusive [activator, full curve] | –
O=C(CSc1nnc2scc(-c3ccccc3)n12)c1ccc2c(c1)OCCO2 | inconclusive [activator, single point] | –
CC1CCCCN1C(=O)COC(=O)c1cc([N+](=O)[O-])ccc1N1CCOCC1 (stereo unspecified) | inconclusive [activator, full curve] | –
CC(C)CCn1cnc2c(cnn2-c2ccc(F)cc2)c1=O | – | inactive: 2.38%
O=C(COC(=O)CSc1ccc([N+](=O)[O-])cc1)NCc1ccco1 | – | inconclusive: 36.2% [activator]
COc1ccccc1OCCCC(=O)Nc1ccc2c(c1)OCCO2 | inconclusive [activator, single point] | –
O=C(COc1ccc2c(c1)CCC2)Nc1ccccn1 | inconclusive [activator, partial curve] | –
Cc1cccc(N(CC(=O)NCc2ccc3c(c2)OCO3)C(=O)CCC(=O)Nc2ccccn2)c1C | – | inactive: 8.51%

Compound | Potency | activation
O=C(Nc1ccc(F)c(Cl)c1)Nc1nnc([C@H]2C[C@H](O)[C@@H](CO)O2)s1 | – | inactive: 0.855%
CS(=O)(=O)N1CCc2cc(S(=O)(=O)Nc3ccc4oc5c(c4c3)CCCC5)ccc21 | inconclusive [activator, partial curve] | –
Cc1c(N=Cc2c(O)n(C)c(=O)c3ccccc23)c(=O)n(-c2ccccc2)n1C | inconclusive [activator, partial curve] | –
COc1ccnc(Oc2ccc(F)cc2)c1C(=O)N/C=N/OCc1c(Cl)cccc1Cl | inconclusive [activator, partial curve] | –
COc1ccc(C/C(C)=N/NC(=S)Nc2ccccc2)cc1 | – | inactive: -8.27%
COc1ccc(NC(=O)COc2ccccc2Cc2ccccc2)cc1S(=O)(=O)N1CCOCC1 | inconclusive [activator, partial curve] | –
COc1ccc(N2CCN(C(=O)COC(=O)COc3cc(C)cc(C)c3)CC2)cc1 | inconclusive [activator, single point] | –
CN(CC(=O)Nc1ccccc1Br)C(=O)CCc1nc2ccccc2c(=O)[nH]1 | inconclusive [activator, full curve] | –
CCN(CC)c1ccc(C(=O)OCC(=O)N2CCCC2)cc1 | – | inactive: 0.963%
Cc1[nH][nH]c(=O)c1C(c1ccc(-c2ccc(Cl)c(Cl)c2)o1)c1c(C)[nH][nH]c1=O | – | inactive: -1.66%
CN(CC(=O)Nc1nc2ccccc2s1)S(=O)(=O)c1ccc(Br)cc1 | inconclusive [activator, partial curve] | –
O=[N+]([O-])c1ccc(C=NNc2ccc(S(=O)(=O)O)cc2)cc1 | – | inactive: -3.88%
CC(=O)N1CCn2c3c(c(=O)c4cc(C)ccc42)CCC31 (stereo unspecified) | – | inactive: 11.5%
COc1ccc(CC(=O)Nc2cc(S(=O)(=O)Nc3ccc(OC)cc3)ccc2OC)cc1 | – | inactive: 11.1%
Cc1ccc(Cl)cc1-c1cc(C(=O)Nc2ccc(F)cc2)[nH]n1 | inconclusive [activator, full curve, poor fit] | –
COC(=O)c1c(NC(=O)COC(=O)CCNS(=O)(=O)c2ccccc2)sc(C)c1C | inconclusive [activator, full curve, poor fit] | –
O=C(NC1CCN(Cc2ccccc2)CC1)c1cn(-c2ccccc2)nc1-c1cccnc1 | inconclusive [activator, partial curve, poor fit] | –
CCc1ccc(NC(=O)C(C)OC(=O)C2CCN(c3ccc(C(F)(F)F)cn3)CC2)cc1 (stereo unspecified) | inconclusive [activator, partial curve] | –
CCOc1ccc(/C=C(\C#N)C(=O)Nc2cccnc2)cc1 | – | inactive: -4.99%
Cc1ccc(C(C)C)cc1OCC(=O)NC1CCCCCCC1 | inconclusive [activator, partial curve, poor fit] | –
